Source: the supplement of paper PMC4967469
The IC50 comes from the fitted curve, where viability falls to half of the control; a fit beyond the top or the lowest dose is shown as a bound at that dose. AUC, from the same fit, is the share of area under the viability curve across the 256-fold dose range: 1 means no effect, lower means more sensitive. A top dose marked as inferred was calculated from the reported fits.

compound: O=C1NC(=O)/C(=C\c2ccc3nccnc3c2)S1 [AS605240]; assay: Viability of human cancer cell lines after 72 h of drug (GDSC screen); details: top dose inferred
Description: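 Human cancer cell lines in 384-well plates, medium with 10% serum, drug for 72 h over a 256-fold dose range (nine 2-fold or five 4-fold steps up to the top dose). Adherent lines were fixed and stained with the nucleic acid dye Syto60, suspension lines read with resazurin; signal relative to control wells, capped at 0 and 100%. One two-parameter sigmoid per drug and line, fitted in a mixed model over all curves with the slope shared within a line.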

Cell Line | AUC | IC50
JURL-MK1 (chronic myeloid leukaemia, suspension, top dose 20 µM) | 0.415 | 0.732 µM
TUR (B-cell lymphoma, suspension, top dose 20 µM) | 0.924 | > 20 µM
H2869 (mesothelioma, adherent, top dose 20 µM) | 0.862 | > 20 µM
SF539 (glioma, adherent, top dose 20 µM) | 0.925 | > 20 µM
K2 (melanoma, adherent, top dose 20 µM) | 0.507 | 1.31 µM
MFH-ino (soft tissue, adherent, top dose 20 µM) | 0.91 | > 20 µM
CL-11 (large intestine, adherent, top dose 20 µM) | 0.956 | > 20 µM
Daoy (medulloblastoma, adherent, top dose 20 µM) | 0.868 | 15.4 µM
PCI-6A (head and neck, adherent, top dose 20 µM) | 0.88 | > 20 µM
JHH-1 (liver, adherent, top dose 20 µM) | 0.813 | 12 µM
AU565 (breast, adherent, top dose 20 µM) | 0.885 | > 20 µM
SW1088 (glioma, adherent, top dose 20 µM) | 0.947 | > 20 µM
SK-N-FI (neuroblastoma, adherent, top dose 20 µM) | 0.887 | > 20 µM
EPLC-272H (lung squamous cell carcinoma, adherent, top dose 20 µM) | 0.716 | 5.57 µM
CaR-1 (large intestine, adherent, top dose 20 µM) | 0.892 | > 20 µM
VMRC-MELG (melanoma, adherent, top dose 20 µM) | 0.974 | > 20 µM
SUP-M2 (anaplastic large cell lymphoma, suspension, top dose 20 µM) | 0.724 | 4.48 µM
KP-N-YN (neuroblastoma, adherent, top dose 20 µM) | 0.959 | > 20 µM
HCC1500 (breast, adherent, top dose 10.24 µM) | 0.939 | > 10.2 µM
LS-1034 (large intestine, adherent, top dose 20 µM) | 0.977 | > 20 µM

Cell Line | AUC | IC50
IST-SL1 (small cell lung carcinoma, semi-adherent, top dose 20 µM) | 0.96 | > 20 µM
HCC-33 (small cell lung carcinoma, adherent, top dose 20 µM) | 0.93 | > 20 µM
MOG-G-UVW (glioma, adherent, top dose 20 µM) | 0.867 | 17.1 µM
KGN (ovary, adherent, top dose 20 µM) | 0.797 | 11.8 µM
A388 (skin, adherent, top dose 20 µM) | 0.803 | 11.7 µM
NCI-H1869 (lung squamous cell carcinoma, adherent, top dose 20 µM) | 0.789 | 10.1 µM
SK-MG-1 (glioma, adherent, top dose 20 µM) | 0.987 | > 20 µM
D-247MG (glioma, adherent, top dose 20 µM) | 0.957 | > 20 µM
8505C (thyroid, adherent, top dose 20 µM) | 0.825 | 13 µM
Hs-445 (Hodgkin lymphoma, suspension, top dose 20 µM) | 0.664 | 3.43 µM
H2803 (mesothelioma, adherent, top dose 20 µM) | 0.984 | > 20 µM
LoVo (large intestine, adherent, top dose 20 µM) | 0.86 | 17.2 µM
NCI-H841 (small cell lung carcinoma, adherent, top dose 20 µM) | 0.952 | > 20 µM
NCI-H1838 (lung adenocarcinoma, adherent, top dose 20 µM) | 0.924 | > 20 µM
CP66-MEL (melanoma, adherent, top dose 20 µM) | 0.523 | 1.46 µM
FADU (head and neck, adherent, top dose 20 µM) | 0.89 | > 20 µM
IST-SL2 (small cell lung carcinoma, suspension, top dose 20 µM) | 0.887 | > 20 µM
KP-N-YS (neuroblastoma, adherent, top dose 20 µM) | 0.941 | > 20 µM
RL (B-cell lymphoma, suspension, top dose 20 µM) | 0.818 | 10.1 µM
LC-2-ad (lung adenocarcinoma, adherent, top dose 20 µM) | 0.847 | 15.4 µM
